Where “and” joins values, the source holds several entries; their conditions need not be identical. Equal values may be shown once. Screen size: about 220,000 compounds; about 5,700 (2.6%) were called active. Inconclusive results, whose numbers are uncertain, are shown with a selection of clear calls. Calls follow the shape of the dose curve; as a rule, active = well fitted inhibition curve with a large enough effect; inconclusive = small, poorly fitted or top-dose-only effect; inactive = no such curve, though single readings can be large or run the other way. Potencies beside an inconclusive call are fits to weak or partial responses and may not hold up.
biological target: Lysine-specific demethylase 5B (Homo sapiens) (UniProt Q9UGL1); assay: Primary screen for KDM5B Histone Demethylases FDH-coupled qHTS; conditions: FDH-coupled NADH fluorescence (FDH is formaldehyde dehydrogenase); activity change, negative = inhibition: at 57.7 µM (top of the series) unless noted; also: nearly all actives have a fitted effect of over 70% in size; as to activity change, negative = inhibition: 0% is about no effect
Summary of the method: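 Measured: NADH fluorescence change, 30 min, RT. System: KDM5BΔAP 200 nM final, H3K4me3 peptide, α-KG, Fe(II), ascorbate, NAD⁺ plus FDH, pH 7.5 HEPES. Compounds: titrated, 10 min pre-incubation with enzyme.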
Potency is read from the fitted curve at half-maximal effect; tags tell the direction and shape of the fitted curve.

Chain of UniProt Q9UGL1 (Q9UGL1 whole entry, looked up): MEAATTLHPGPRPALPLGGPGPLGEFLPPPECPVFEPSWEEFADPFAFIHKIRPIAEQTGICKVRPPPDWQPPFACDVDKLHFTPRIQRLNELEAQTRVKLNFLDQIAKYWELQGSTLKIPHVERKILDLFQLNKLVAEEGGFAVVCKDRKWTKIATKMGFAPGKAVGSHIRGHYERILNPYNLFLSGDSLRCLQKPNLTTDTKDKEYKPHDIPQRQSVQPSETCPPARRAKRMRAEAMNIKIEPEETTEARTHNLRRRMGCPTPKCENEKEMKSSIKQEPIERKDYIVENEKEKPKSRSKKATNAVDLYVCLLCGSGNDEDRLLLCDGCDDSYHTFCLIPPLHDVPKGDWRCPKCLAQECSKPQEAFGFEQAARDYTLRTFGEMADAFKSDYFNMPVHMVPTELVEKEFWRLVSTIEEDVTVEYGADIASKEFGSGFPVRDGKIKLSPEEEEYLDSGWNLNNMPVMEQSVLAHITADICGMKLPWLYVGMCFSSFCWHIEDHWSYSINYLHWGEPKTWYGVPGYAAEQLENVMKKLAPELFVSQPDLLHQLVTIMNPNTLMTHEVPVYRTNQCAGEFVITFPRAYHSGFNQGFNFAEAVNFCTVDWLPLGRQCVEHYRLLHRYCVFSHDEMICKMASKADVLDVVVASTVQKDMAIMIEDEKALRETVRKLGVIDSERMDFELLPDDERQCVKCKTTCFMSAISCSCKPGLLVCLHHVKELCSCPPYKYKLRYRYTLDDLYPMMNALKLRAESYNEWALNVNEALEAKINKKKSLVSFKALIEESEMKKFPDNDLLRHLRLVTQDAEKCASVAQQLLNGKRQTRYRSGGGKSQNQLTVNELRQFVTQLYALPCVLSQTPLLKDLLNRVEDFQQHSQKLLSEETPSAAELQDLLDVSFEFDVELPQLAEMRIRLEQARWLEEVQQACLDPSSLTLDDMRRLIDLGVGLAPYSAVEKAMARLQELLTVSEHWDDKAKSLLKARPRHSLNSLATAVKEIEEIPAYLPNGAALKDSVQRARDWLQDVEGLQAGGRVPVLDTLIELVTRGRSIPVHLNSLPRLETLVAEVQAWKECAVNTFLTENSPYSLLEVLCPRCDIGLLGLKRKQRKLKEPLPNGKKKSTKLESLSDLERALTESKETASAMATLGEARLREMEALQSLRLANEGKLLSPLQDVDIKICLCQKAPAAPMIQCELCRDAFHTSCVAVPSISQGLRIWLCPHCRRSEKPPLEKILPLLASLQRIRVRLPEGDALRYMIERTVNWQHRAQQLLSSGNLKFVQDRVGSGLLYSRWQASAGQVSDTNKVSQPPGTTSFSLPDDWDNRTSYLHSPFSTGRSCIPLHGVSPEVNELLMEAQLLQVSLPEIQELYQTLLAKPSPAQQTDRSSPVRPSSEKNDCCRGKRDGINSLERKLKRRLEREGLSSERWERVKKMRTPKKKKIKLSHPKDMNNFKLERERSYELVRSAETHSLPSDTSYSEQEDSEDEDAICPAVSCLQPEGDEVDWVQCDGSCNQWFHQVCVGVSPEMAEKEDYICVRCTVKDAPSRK

Q: With `C=CCNC(=O)CCc1c(C)nn(-c2ccc(F)cc2)c1Oc1ccccc1OC` as the compound, how does the Potency read?
A: The Potency was “inactive”.

Q: For `COCCCNc1nc2c(c(=O)n(C)c(=O)n2C)n1Cc1ccccc1`, which Potency is on record?
A: The Potency was inconclusive: 8.91 µM [inhibitor, partial curve, poor fit].

Q: How did the Potency turn out when `Cc1cc(C(=O)OCC(=O)NC(C)c2ccccc2)c2ccccc2n1` (configuration not stated) was run?
A: Its Potency is inconclusive: 15.8 µM [inhibitor, partial curve, poor fit].

Q: For `CN1CCN(C2CCOC3(CCN(C(=O)c4cccc5[nH]ccc45)CC3)C2)CC1` (configuration not stated), which Potency is on record?
A: Its Potency is inconclusive: 28.2 µM [inhibitor, partial curve, poor fit].

Q: For `Cc1nnc2n1CCC(NC(=O)c1ccc(=O)[nH]c1)CC2` (configuration not stated), which Potency is on record?
A: The Potency was inconclusive: 17.8 µM [inhibitor, partial curve, poor fit].

Q: Which Potency does the source give for `NCC(=O)N1CCCC2(Cc3ccccc3CN2C(=O)Cc2cccc(Cl)c2)C1` (configuration not stated) here?
A: The Potency was “inactive”.

Q: Which Potency does the source give for `O=C1CC(c2ccccc2)N(C(=O)CNS(=O)(=O)c2cccc(F)c2)CCCCCN1` (configuration not stated) here?
A: Its Potency is inconclusive: 22.4 µM [inhibitor, partial curve].

Q: For `CCOc1ccc(CNCc2c(C(=O)O)n(Cc3ccc(OC)cc3)c3ccccc23)cc1`, which Potency is on record?
A: The Potency was inconclusive: 35.5 µM [inhibitor, single point].

Q: With `CCOc1cc(C(=O)NC2CCN(c3cc(-c4ccc(OC)cc4)[nH]n3)C2)cc(OCC)c1OCC` (configuration not stated) as the compound, how does the Potency read?
A: The Potency was “inactive”.

Q: For `COc1ccc(-c2nc3c(C#N)c[nH]n3c2NC2CCCC2)cc1`, which Potency is on record?
A: The Potency was inconclusive: 25.1 µM [inhibitor, partial curve, poor fit].

Q: Which Potency does the source give for `O=C(NCC1CCCO1)c1ccccc1-c1nc(-c2ccccc2)no1` (configuration not stated) here?
A: Its Potency is “inactive”.

Q: `Cc1nc2cc(-c3ccccc3)nn2c(C)c1CCC(=O)NCc1ccc2c(c1)OCO2` was tested. Which Potency did it give?
A: Its Potency is inconclusive: 28.2 µM [inhibitor, single point].

Q: Which Potency does the source give for `O=C(Nc1cccnc1)c1cnc2n1CCN(Cc1ccccc1)CC2` here?
A: Its Potency is “inactive”.

Q: Which Potency does the source give for `O=C(CSc1nnnn1-c1ccccc1C(F)(F)F)Nc1ccc2nccnc2c1` here?
A: Its Potency is inconclusive: 28.2 µM [inhibitor, partial curve, poor fit].

Q: `Cc1nc(CN2CCN(C(=O)[C@H]3CC[C@@H](N)C3)CC2)cs1` was tested. Which Potency did it give?
A: The Potency was inconclusive: 35.5 µM [inhibitor, partial curve, poor fit].

Q: Which Potency does the source give for `O=C(CSc1ccccc1)N1CCc2nc3cc(-c4ccccc4)[nH]n3c(=O)c2C1` here?
A: The Potency was inconclusive: 25.1 µM [inhibitor, partial curve, poor fit].

Q: With `CC(NC(=O)c1noc(-c2ccc3c(c2)OCO3)n1)c1ccccc1` (configuration not stated) as the compound, how does the Potency read?
A: Its Potency is “inactive”.

Q: `COc1ccc2[nH]c(C(=O)N[C@H]3COC[C@H]3Cc3cc(C)no3)c(C)c2c1` was tested. Which Potency did it give?
A: Its Potency is active: 22.4 µM.

Q: For `CCS(=O)(=O)Nc1ccc(C2=NN(C(=O)c3ccco3)C(c3ccc(OC)cc3)C2)cc1` (configuration not stated), which Potency is on record?
A: Its Potency is inconclusive: 39.8 µM [inhibitor, single point].

Q: `COc1cc(/C=C(/C#N)c2ccc(C(F)(F)F)cn2)ccc1O` was tested. Which Potency did it give?
A: Its Potency is inconclusive: 31.6 µM [inhibitor, single point].

Q: Which Potency does the source give for `Cc1cc(C(=O)N2C[C@@H](COCC3CC3)[C@H](c3ccncc3)C2)c(C)o1` here?
A: Its Potency is inconclusive: 14.1 µM [inhibitor, partial curve].

Q: How did the Potency turn out when `CCCCCNC(=O)c1nccnc1N` was run?
A: Its Potency is inconclusive: 22.4 µM [inhibitor, partial curve, poor fit].

Q: With `Cc1ccc(-c2cc(N3CCCN(C(=O)c4ccccc4F)CC3)n[nH]2)cc1C` as the compound, how does the Potency read?
A: The Potency was “inactive”.

Q: With `Cc1ccc(C)c(Nc2nc3c(S(=O)(=O)c4ccc(Br)cc4)nnn3c3ccsc23)c1` as the compound, how does the Potency read?
A: The Potency was inconclusive: 17.8 µM [inhibitor, partial curve, poor fit].

Q: `c1ccc2c(CN3CCn4c(nnc4C4CCCNC4)C3)cccc2c1` (configuration not stated) was tested. Which Potency did it give?
A: Its Potency is inconclusive: 44.7 µM [inhibitor, partial curve] and inconclusive: 35.5 µM [inhibitor, single point].

Q: With `Cc1csc(CNC(=O)/C=C/c2cccnc2)n1` as the compound, how does the Potency read?
A: Its Potency is “inactive”.

Q: `O=C(c1ccc(Br)o1)N1C[C@@H](CO)[C@H](c2ccncc2)C1` was tested. Which Potency did it give?
A: Its Potency is “inactive”.

Q: With `COc1ccc(S(=O)(=O)c2cc3cc(OC)ccc3oc2=O)cc1` as the compound, how does the Potency read?
A: Its Potency is “inactive”.

Q: Which Potency does the source give for `CCOC(=O)N1CCC(NC)CC1` here?
A: Its Potency is inconclusive: 35.5 µM [inhibitor, partial curve].

Q: For `S=C(N/N=C/c1c(Cl)cccc1Cl)Nc1ccccc1`, which Potency is on record?
A: Its Potency is “inactive”.

Q: `CCNc1nc(SCC(=O)NC)nc2ccccc12` was tested. Which Potency did it give?
A: The Potency was “inactive”.

Q: `CN(C)c1cccc(C(=O)NC2CCN(c3cc(-c4ccccc4)[nH]n3)CC2)c1` was tested. Which Potency did it give?
A: The Potency was active: 20 µM.

Q: For `O=C(NCCc1ccccc1F)c1cc(Br)cn2ccnc12`, which Potency is on record?
A: The Potency was active: 28.2 µM.

Q: How did the Potency turn out when `Fc1ccc(-c2cnc(CN3CCN(c4ccccc4Cl)CC3)o2)cc1` was run?
A: The Potency was inconclusive: 39.8 µM [inhibitor, single point].

Q: How did the Potency turn out when `Cc1ccccc1-c1nc2cc3c(cc2cc1CN1CCC[C@H]1CO)OCO3` was run?
A: The Potency was inconclusive: 35.5 µM [inhibitor, partial curve, poor fit].

Q: For `Cc1noc(C)c1S(=O)(=O)N1C[C@@H](F)C[C@H]1C(=O)N1CCc2ccccc2C1`, which Potency is on record?
A: The Potency was inconclusive: 39.8 µM [inhibitor, partial curve, poor fit].

Q: `CC(NC(=O)c1ccc(Cn2c(=O)c3cccn3c3cccnc32)cc1)c1ccccc1` (configuration not stated) was tested. Which activity change, negative = inhibition did it give?
A: The activity change, negative = inhibition was inconclusive: -32.4% [inhibitor].

Q: For `Cc1cccc(N(C)c2ccc3nnc(-c4cc(C(=O)N(C)C)ccn4)n3n2)c1`, which Potency is on record?
A: The Potency was inconclusive: 35.5 µM [inhibitor, partial curve].

Q: How did the activity change, negative = inhibition turn out when `COc1ccc(C(=O)c2oc3ccccc3c2NC(=O)COc2ccc(C)cc2)cc1` was run?
A: Its activity change, negative = inhibition is inconclusive: -30.4% [inhibitor].

Q: `COc1ccc(Cl)cc1NC(=O)Cn1c(=O)n(CCCC(=O)NCCc2ccc(OC)c(OC)c2)c(=O)c2ccccc21` was tested. Which Potency did it give?
A: The Potency was inconclusive: 25.1 µM [inhibitor, single point].

Q: Which Potency does the source give for `COCCNc1nc(-c2ccccc2)nc2c1oc1ccccc12` here?
A: Its Potency is inconclusive: 35.5 µM [inhibitor, partial curve, poor fit].

Q: For `CCOc1ccc(N(CC)C(=O)c2ccc3c(c2)N(S(C)(=O)=O)CC3)cc1`, which Potency is on record?
A: Its Potency is inconclusive: 31.6 µM [inhibitor, single point].

— PubChem BioAssay AID1347165 (National Center for Advancing Translational Sciences (NCATS), 2019)
